# The supplement of paper PMC8728848
# The other results are listed elsewhere or left out.
# Assays:
# Assay in all cases: glycan array binding signal (z-score within array); higher = stronger binding
# Details in all cases: glycan notation: IUPAC condensed, linker removed
# [1] = target: GlcNAc(b1-2)Man(a1-3)[GlcNAc(b1-2)Man(a1-6)]Man(b1-4)GlcNAc(b1-4)GlcNAc
# In short: (§1)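 Glycan array data came from 3228 arrays in the Consortium for Functional Glycomics database, and only arrays with an available protein sequence were kept. Glycan names were put into IUPAC-condensed notation, and columns mapping to the same glycan were averaged. The binding signal is a within-array Z-score, averaged across arrays of one protein sequence run at different concentrations or buffers and across linkers. A negative Z-score can be read as non-binding.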
# GlcNAc(b1-3)Gal = target: GlcNAc(b1-3)Gal
# In short: as §1
# [2] = target: GlcNAc(b1-3)Gal(b1-3)GalNAc
# In short: as §1
# GlcNAc(b1-3)Gal(b1-4)Glc = target: GlcNAc(b1-3)Gal(b1-4)Glc
# In short: as §1
# [3] = target: GlcNAc(b1-3)Gal(b1-4)GlcNAc
# In short: as §1
# [4] = target: GlcNAc(b1-3)Gal(b1-4)GlcNAc(b1-3)Gal(b1-4)GlcNAc
# In short: as §1
# GlcNAc(b1-3)GalNAc = target: GlcNAc(b1-3)GalNAc
# In short: as §1
# [5] = target: GlcNAc(b1-3)[GlcNAc(b1-4)][GlcNAc(b1-6)]GlcNAc
# In short: as §1
# [6] = target: GlcNAc(b1-3)[GlcNAc(b1-6)]Gal(b1-4)GlcNAc
# In short: as §1
# [7] = target: GlcNAc(b1-3)[GlcNAc(b1-6)]GlcNAc
# In short: as §1
# [8] = target: GlcNAc(b1-4)Gal(b1-4)GlcNAc
# In short: as §1
# [9] = target: GlcNAc(b1-4)GlcNAc(b1-4)GlcNAc
# In short: as §1
# [10] = target: GlcNAc(b1-4)GlcNAc(b1-4)GlcNAc(b1-4)GlcNAc(b1-4)GlcNAc
# In short: as §1
# [11] = target: GlcNAc(b1-4)GlcNAc(b1-4)GlcNAc(b1-4)GlcNAc(b1-4)GlcNAc(b1-4)GlcNAc
# In short: as §1
# [12] = target: GlcNAc(b1-4)[GlcNAc(b1-6)]GalNAc
# In short: as §1
# [13] = target: GlcNAc(b1-6)Gal(b1-4)GlcNAc
# In short: as §1
# GlcNAc(b1-6)GalNAc = target: GlcNAc(b1-6)GalNAc
# In short: as §1
# Kdn(a2-3)Gal(b1-3)GlcNAc = target: Kdn(a2-3)Gal(b1-3)GlcNAc
# In short: as §1
# Kdn(a2-3)Gal(b1-4)GlcNAc = target: Kdn(a2-3)Gal(b1-4)GlcNAc
# In short: as §1
# [14] = target: Man(a1-2)Man(a1-2)Man(a1-3)Man
# In short: as §1
# [15] = target: Man(a1-2)Man(a1-2)Man(a1-3)[Man(a1-2)Man(a1-3)[Man(a1-2)Man(a1-6)]Man(a1-6)]Man(b1-4)GlcNAc(b1-4)GlcNAc
# In short: as §1
# [16] = target: Man(a1-2)Man(a1-2)Man(a1-3)[Man(a1-2)Man(a1-6)[Man(a1-3)]Man(a1-6)]Man(b1-4)GlcNAc(b1-4)GlcNAc
# In short: as §1
# [17] = target: Man(a1-2)Man(a1-2)Man(a1-6)[Man(a1-3)]Man
# In short: as §1
# Man(a1-2)Man(a1-3)Man = target: Man(a1-2)Man(a1-3)Man
# In short: as §1
# [18] = target: Man(a1-2)Man(a1-3)[Man(a1-2)Man(a1-6)]Man
# In short: as §1
# [19] = target: Man(a1-2)Man(a1-3)[Man(a1-3)[Man(a1-6)]Man(a1-6)]Man(b1-4)GlcNAc(b1-4)GlcNAc
# In short: as §1
# [20] = target: Man(a1-2)Man(a1-3)[Man(a1-6)]Man(a1-6)[Man(a1-2)Man(a1-3)]Man(b1-4)GlcNAc(b1-4)GlcNAc
# In short: as §1
# Man(a1-3)[Man(a1-6)]Man = target: Man(a1-3)[Man(a1-6)]Man
# In short: as §1
# [21] = target: Man(a1-3)[Man(a1-6)]Man(a1-6)[Man(a1-3)]Man(b1-4)GlcNAc(b1-4)GlcNAc
# In short: as §1
# [22] = target: Man(a1-3)[Man(a1-6)]Man(b1-4)GlcNAc(b1-4)GlcNAc
# In short: as §1
# Man(b1-4)GlcNAc = target: Man(b1-4)GlcNAc
# In short: as §1
# Neu5Ac(a2-3)Gal = target: Neu5Ac(a2-3)Gal
# In short: as §1
# [23] = target: Neu5Ac(a2-3)Gal(b1-3)GalNAc
# In short: as §1
# [24] = target: Neu5Ac(a2-3)Gal(b1-3)GalNAc(b1-3)Gal(a1-4)Gal(b1-4)Glc
# In short: as §1
# [25] = target: Neu5Ac(a2-3)Gal(b1-3)GalNAc(b1-4)[Neu5Ac(a2-3)]Gal(b1-4)Glc
# In short: as §1
# [26] = target: Neu5Ac(a2-3)Gal(b1-3)GalNAc6S
# In short: as §1
# [27] = target: Neu5Ac(a2-3)Gal(b1-3)GlcNAc
# In short: as §1
# [28] = target: Neu5Ac(a2-3)Gal(b1-3)GlcNAc(b1-3)Gal(b1-3)GlcNAc
# In short: as §1
# [29] = target: Neu5Ac(a2-3)Gal(b1-3)GlcNAc(b1-3)Gal(b1-4)GlcNAc
# In short: as §1
# [30] = target: Neu5Ac(a2-3)Gal(b1-3)GlcNAc6S
# In short: as §1
# [31] = target: Neu5Ac(a2-3)Gal(b1-3)[Fuc(a1-4)]GlcNAc
# In short: as §1
# [32] = target: Neu5Ac(a2-3)Gal(b1-3)[Fuc(a1-4)]GlcNAc(b1-3)Gal(b1-4)[Fuc(a1-3)]GlcNAc
# In short: as §1
# [33] = target: Neu5Ac(a2-3)Gal(b1-3)[Neu5Ac(a2-3)Gal(b1-4)]GlcNAc
# In short: as §1
binder,measurement,setting,value
"PEB3 Cj0289c (Campylobacter jejuni), Q9PIK7 (protein) MDVNLYGPGGPHTALKDIANKYSEKTGVKVNVNFGPQATWFEKAKKDADILFGASDQSALAIASDFGKDFNVSKIKPLYFREAIILTQKGNPLKIKGLKDLANKKVRIVVPEGAGKSNTSGTGVWEDMIGRTQDIKTIQNFRNNIVAFVPNSGSARKLFAQDQADAWITWIDWSKSNPDIGTAVAIEKDLVVYRTFNVIAKEGASKETQDFIAYLSSKEAKEIFKKYGWRE",glycan array binding signal (z-score),[1],0.434
same,glycan array binding signal (z-score),GlcNAc(b1-3)Gal,-0.111
same,glycan array binding signal (z-score),[2],-0.114
same,glycan array binding signal (z-score),GlcNAc(b1-3)Gal(b1-4)Glc,-0.447
same,glycan array binding signal (z-score),[3],0.507
same,glycan array binding signal (z-score),[4],-0.379
same,glycan array binding signal (z-score),GlcNAc(b1-3)GalNAc,-0.314
same,glycan array binding signal (z-score),[5],-0.251
same,glycan array binding signal (z-score),[6],-0.234
same,glycan array binding signal (z-score),[7],-0.355
same,glycan array binding signal (z-score),[8],-0.422
same,glycan array binding signal (z-score),[9],-0.05
same,glycan array binding signal (z-score),[10],0.274
same,glycan array binding signal (z-score),[11],0.159
same,glycan array binding signal (z-score),[12],-0.066
same,glycan array binding signal (z-score),[13],-0.319
same,glycan array binding signal (z-score),GlcNAc(b1-6)GalNAc,-0.441
same,glycan array binding signal (z-score),Kdn(a2-3)Gal(b1-3)GlcNAc,-0.34
same,glycan array binding signal (z-score),Kdn(a2-3)Gal(b1-4)GlcNAc,-0.263
same,glycan array binding signal (z-score),[14],0.253
same,glycan array binding signal (z-score),[15],-0.256
same,glycan array binding signal (z-score),[16],-0.265
same,glycan array binding signal (z-score),[17],-0.192
same,glycan array binding signal (z-score),Man(a1-2)Man(a1-3)Man,-0.001
same,glycan array binding signal (z-score),[18],-0.277
same,glycan array binding signal (z-score),[19],-0.274
same,glycan array binding signal (z-score),[20],-0.25
same,glycan array binding signal (z-score),Man(a1-3)[Man(a1-6)]Man,-0.211
same,glycan array binding signal (z-score),[21],-0.392
same,glycan array binding signal (z-score),[22],0.582
same,glycan array binding signal (z-score),Man(b1-4)GlcNAc,0.207
same,glycan array binding signal (z-score),Neu5Ac(a2-3)Gal,-0.349
same,glycan array binding signal (z-score),[23],-0.392
same,glycan array binding signal (z-score),[24],-0.416
same,glycan array binding signal (z-score),[25],-0.335
same,glycan array binding signal (z-score),[26],-0.071
same,glycan array binding signal (z-score),[27],-0.32
same,glycan array binding signal (z-score),[28],-0.455
same,glycan array binding signal (z-score),[29],-0.441
same,glycan array binding signal (z-score),[30],-0.071
same,glycan array binding signal (z-score),[31],-0.368
same,glycan array binding signal (z-score),[32],-0.323
same,glycan array binding signal (z-score),[33],-0.423
